Measurements from PubChem BioAssay AID686970 (National Center for Advancing Translational Sciences (NCATS), 2013).
About 6,000 (1.7%) of roughly 360,000 compounds were called active. The shares of active, inactive and inconclusive entries below differ from those in the screen. The call rests on the fitted dose curve; in most records, active means well fitted cell-killing curve with a large enough effect; inconclusive means small, poorly fitted or top-dose-only effect, or effect the other way; inactive means flat fitted curve, though single readings scatter. No potency is given beside an inconclusive call; the fits are too rough.

assay: qHTS for induction of synthetic lethality in tumor cells producing 2HG: qHTS for the HT-1080-NT fibrosarcoma cell line; details: HT-1080-NT fibrosarcoma viability, CellTiter-Glo ATP luminescence, 48 h; activity, negative = less viability: at 46.1 µM (top of the series) unless noted;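 further: NT is the 2HG producing partner of a matched IDH1 knockdown line; nearly all actives have a fitted effect of over 55% in size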;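 on activity, negative = less viability: 0% = DMSO-treated cells and -100% = media-only wells without cells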
Procedure, shortened: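 Toxicity toward the 2HG-producing NT line was scored as %Activity, normalised to DMSO and no-cell wells, from CellTiter-Glo luminescence after 48 hours' treatment.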
Potency means the concentration at half of the fitted maximal effect; tags describe the fitted curve by direction and shape.

Row | Structure (SMILES) | Potency | activity, negative = less viability
1 | O=c1oc2cc(Oc3c([N+](=O)[O-])cc(C(F)(F)F)cc3[N+](=O)[O-])ccc2c2c1CCCC2 | inconclusive [cytotoxic, single point] | 
2 | CC[C@@]1(O)C(=O)OCc2c1cc1n(c2=O)Cc2cc3c(CN(C)C)c(O)ccc3nc2-1 | active: 1.16 µM | 
3 | CCOc1ccccc1-c1nc2c(s1)CCc1onc(-c3ccc(OC)cc3)c1-2 | inconclusive [rising, single point] | 
4 | Fc1ccc(NC(=S)N/N=C/c2cccc(Br)c2)c(F)c1 | inconclusive [cytotoxic, single point] | 
5 | CC(=O)Nc1cccc(C)c1 |  | inconclusive: 30.1%
6 | CCCC1/C(=N/O)CC(c2ccccc2)NC1c1ccccc1 (configuration not stated) | inconclusive [cytotoxic, single point] | 
7 | Cc1cc(C)c(OCC(=O)N/N=C/c2ccc3c(c2)OCO3)c(C)c1 | active: 18.4 µM | 
8 | COc1ccc(S(=O)(=O)N(C)C[C@H]2OCCCC[C@H](C)Oc3ccc(NC(=O)Nc4ccc(F)cc4)cc3C(=O)N([C@H](C)CO)C[C@H]2C)cc1 |  | inactive: -16.2%
9 | O=C(CCCc1nc(-c2ccccc2Cl)no1)N1CCOCC1 | inconclusive [rising, single point] | 
10 | CC[C@]12C(=O)N(C)C[C@H]([C@@H]3C(=O)N(C)C(=O)[C@@H]31)N2C(=O)c1ccc(C)cc1 |  | inactive: 9.83%
11 | Nc1nc2ccccc2n1C(=O)c1cccs1 | inconclusive [cytotoxic, single point] | 
12 | COc1ccccc1N(CC(=O)N1CCOCC1)S(C)(=O)=O |  | inactive: 4.12%
13 | Cc1ccc(S(=O)(=O)N2C[C@@H]3[C@H]4CC[C@H](C4)[C@@H]3[C@@H](C)C2CC(=O)c2ccccc2)cc1 (some centres not stated) |  | inconclusive: -11.9% [cytotoxic]
14 | C=CCN(C(=O)CNC(=O)c1ccco1)C(C(=O)NC1CCCC1)c1ccc(OC)cc1 (configuration not stated) |  | inactive: 10%
15 | CCCOc1c(OC)cccc1C1CC(=O)Nc2cc3c(cc21)OCCO3 (configuration not stated) | inconclusive [cytotoxic, single point] | 
16 | Cc1ccc2nc(-c3cccnc3)c(NC3CCCCC3)n2c1 |  | inactive: -5.28%
17 | COc1ccc(S(=O)(=O)Nc2ccccc2C(=O)N2CCOCC2)cc1C | inconclusive [rising, single point] | 
18 | O=C(c1ccc(COc2ccc3ccccc3c2)o1)N1N=C(C(F)F)CC1(O)C(F)F (configuration not stated) | inconclusive [cytotoxic, single point] | 
19 | CCOC(=O)C1(C)CCN1C(=O)c1cc(OC)ccc1Br (configuration not stated) |  | inactive: 13.3%
20 | CCOC(=O)CSc1nc2ccccc2c(=O)n1CC1CCC(C(=O)NCc2ccco2)CC1 (configuration not stated) |  | inactive: -12.7%
21 | CCN(CC)CCN(C(=O)c1ccc(S(=O)(=O)N2CCCC2)cc1)c1nc2cc(C)cc(C)c2s1 | inconclusive [cytotoxic, single point] | 
22 | C[C@@H](CSc1ccccc1)CN1CC[C@H](C(C)(C)C)CCC1=O |  | inactive: 0%
23 | CCOc1ccc(S(=O)(=O)N2CCOCC2)cc1NC(=O)CSCc1ccc(C)cc1 | active: 8.2 µM | 
24 | C(=C/c1nccc2c1[nH]c1ccccc12)/c1ccc2c(c1)OCO2 | inconclusive [cytotoxic, single point] | 

Row | Structure (SMILES) | Potency | activity, negative = less viability
25 | Cc1ccc(-c2c(C(=O)N/N=C/c3cccc(Cl)c3)nnn2-c2nonc2N)cc1 | inconclusive [cytotoxic, single point] | 
26 | COc1ccc(/[N+]([O-])=C/c2ccco2)cc1 |  | inactive: 8.08%
27 | OCC1CCN(Cc2cn(Cc3ccccc3)nc2-c2cc3ccccc3o2)CC1 | inconclusive [cytotoxic, partial curve] | 
28 | CCOc1ccc(NC(=O)c2ccc3c(c2)OCCO3)cc1S(=O)(=O)N(CC)CC |  | inactive: 0.44%
29 | CC(C)(C)C1CCc2c(sc3nc(SCC(N)=O)nc(N)c23)C1 (configuration not stated) | inconclusive [cytotoxic, single point] | 
30 | CCCc1nc2ccccc2c(=O)n1NC(=O)c1c(O)c2ccccc2[nH]c1=O | inconclusive [cytotoxic, single point] | 
31 | CN(C(=O)COC(=O)c1ccc(-c2ccc(O)cc2)cc1)C1CCS(=O)(=O)C1 (configuration not stated) | active: 6.51 µM | 
32 | Cn1nc(C(C)(C)C)cc1C(=O)NCc1cc(F)cc2c1OCOC2 | inconclusive [cytotoxic, single point] | 
33 | CSc1nc(N)c(C#N)c(-c2ccc(Cl)cc2)c1C#N | inconclusive [cytotoxic, partial curve] | 
34 | N#CC1=C(N)Oc2c(ccc3ccccc23)C1c1ccsc1 (configuration not stated) | active: 13 µM | 
35 | CC1(C)Cc2ccccc2-c2n[nH]c(=S)n21 | active: 14.1 µM | 
36 | O=C(Cn1nc(-c2ccccc2)oc1=O)OCC(=O)c1ccccc1 |  | inactive: -6.07%
37 | O=C(COc1cccc2ccccc12)N/N=C/c1ccco1 |  | inactive: 19.5%
38 | CC(=O)Cc1nsc(NC(=O)c2ccc(COc3cccc(C)c3)o2)n1 | inconclusive [cytotoxic, single point] | 
39 | Cc1cc(Br)cn2c(CC(C)(C)C)c(C3CCCCC3)nc12 |  | inactive: 15.3%
40 | CC(C)(C)c1ccc(C(=O)N2[C@H](COCc3ccccc3)C=CS2(=O)=O)cc1 | inconclusive [cytotoxic, single point] | 
41 | CCCCS/C(N)=N/N=C/c1cc(C)ccc1O | inconclusive [cytotoxic, single point] | 
42 | CCOC(=O)c1ccc(NS(=O)(=O)c2cc(-c3nnnn3C(C)C)ccc2OC)cc1 |  | inactive: -3.85%
43 | CN(C)CCCNC(=O)/C(=C\c1ccc(-c2ccc(Br)cc2)o1)NC(=O)c1ccccc1 | inconclusive [cytotoxic, partial curve] | 
44 | CCOC(=O)Nc1cccc(Nc2ccccc2)c1 |  | inactive: 0.992%
45 | Cc1cc(C)n(-c2nc3ccccc3nc2Nc2ccc3[nH]c(=O)[nH]c3c2)n1 | inconclusive [cytotoxic, single point] | 
46 | CCOC(=O)c1[nH]c(C)c(C(=O)N2CCOCC2)c1C |  | inactive: 9.27%
47 | COc1ccc(-n2c(CN3CCC(C)CC3)nc3ccc([N+](=O)[O-])cc3c2=O)c(OC)c1 |  | inactive: -5.86%
